# From publication PMC9911399, “Two distinct binding modes provide the RNA-binding protein RbFox with extraordinary sequence specificity”
# Residue numbers refer to the chain shown, from its start. The list shows a part of the results.
# B1: GCCUUUA (DNA:RNA)
# RNA: GGGAGACCGGAAUUCAGAUUGUCCGCCUUUAUUAAAUCCCGUCGUAGCCACCA
# DNA 1: CAATCTGAATTCCGGTCTCCC
# DNA 2: TGGTGGCTACGACGGGATT
# B2: GGUGAAG (DNA:RNA)
# RNA: B1 RNA with C26G, C27U, U28G, U29A, U30A, A31G
# DNA 1: CAATCTGAATTCCGGTCTCCC
# DNA 2: TGGTGGCTACGACGGGATT
# B3: UCACACC (DNA:RNA)
# RNA: B1 RNA with G25U, C27A, U28C, U29A, U30C, A31C
# DNA 1: CAATCTGAATTCCGGTCTCCC
# DNA 2: TGGTGGCTACGACGGGATT
# B4: AACCAAU (DNA:RNA)
# RNA: B1 RNA with G25A, C26A, U28C, U29A, U30A, A31U
# DNA 1: CAATCTGAATTCCGGTCTCCC
# DNA 2: TGGTGGCTACGACGGGATT
# B5: UGACACG (DNA:RNA)
# RNA: GGGAGACCGGAAUUCAGAUUGUCCUGACACGUUAAAUCCCGUCGUAGCCACCA
# DNA 1: CAATCTGAATTCCGGTCTCCC
# DNA 2: TGGTGGCTACGACGGGATT
# B6: CGAGGUU (DNA:RNA)
# RNA: B5 RNA with U25C, C28G, A29G, C30U, G31U
# DNA 1: CAATCTGAATTCCGGTCTCCC
# DNA 2: TGGTGGCTACGACGGGATT
# B7: CCCUGUC (DNA:RNA)
# RNA: B1 RNA with G25C, U29G, A31C
# DNA 1: CAATCTGAATTCCGGTCTCCC
# DNA 2: TGGTGGCTACGACGGGATT
# B8: GAUAUCU (DNA:RNA)
# RNA: B1 RNA with C26A, C27U, U28A, U30C, A31U
# DNA 1: CAATCTGAATTCCGGTCTCCC
# DNA 2: TGGTGGCTACGACGGGATT
# B9: UCUGCGC (DNA:RNA)
# RNA: B1 RNA with G25U, C27U, U28G, U29C, U30G, A31C
# DNA 1: CAATCTGAATTCCGGTCTCCC
# DNA 2: TGGTGGCTACGACGGGATT
# Biological target: T1, RBFOX1 RRM (Homo sapiens, UniProt Q9NWB1 109-208)
# T1 sequence: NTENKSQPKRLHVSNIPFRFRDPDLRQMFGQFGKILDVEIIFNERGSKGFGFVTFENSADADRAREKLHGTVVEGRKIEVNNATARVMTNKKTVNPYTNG
# Experiment: EMSA; HiTS-Eq, 1 nM pool, 10 min; buffer printed only for the single-RNA assays: 10 mM Tris pH 7.5, 150 mM NaCl, 3.4 mM EDTA, 0.001% NP-40, 30 C
# Settings: tags: His6 N-terminal (pET28a); label: 5' 32P
# Summary of the method: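 Purified RbFox RRM, wild type or mutant, was incubated for 10 min in 50 µL with 1 nM of a 5′-radiolabelled RNA pool carrying 7 randomized nucleotides, whose flanks were annealed to DNA oligonucleotides, over a series of increasing protein concentrations. Unbound RNA was resolved on 8% native PAGE, cut out, reverse-transcribed, barcoded by PCR and sequenced on an Illumina HiSeq 2500. Relative association constants were derived from changes in read counts for each RNA species versus the control reaction and normalised to the cognate motif.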
row,Binder,binding signal
1,B1,0.00729 KA relative to UGCAUGU
2,B2,0.0202 KA relative to UGCAUGU
3,B3,0.00176 KA relative to UGCAUGU
4,B4,0.000388 KA relative to UGCAUGU
5,B5,0.0135 KA relative to UGCAUGU
6,B6,0.0152 KA relative to UGCAUGU
7,B7,0.0142 KA relative to UGCAUGU
8,B8,0.00629 KA relative to UGCAUGU
9,B9,0.0191 KA relative to UGCAUGU
